In PubChem BioAssay AID1963576 (National Center for Advancing Translational Sciences (NCATS), 2024):
Among all 46,000 compounds or so, about 60 (0.1%) were called active. About 3% were inconclusive and are not listed. Calls come from the whole dose curve; as a rule, active = well fitted inhibition curve with a large enough effect; inconclusive = small, poorly fitted or top-dose-only effect; inactive = no such curve, though single readings can be large or run the other way. Some of the results follow.

Experiment: Primary qHTS assay for Inhibitors of ovarian cancer metastasis using an organotypic tumor microenvironment (TME) model.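 For activity change, negative = inhibition: plate controls were DMSO wells for no effect and tomatine positive control wells for full effect.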 Note: nearly all actives have a fitted effect of over 65% in size.
Settings: SKOV3ip1-GFP adhesion/invasion on 3D omental model, fluorescence; series mostly up to 45.8 µM; activity change, negative = inhibition: at the top concentration
Outline: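 Primary human omental fibroblast/mesothelial 3D culture pre-formed 48 h. SKOV3ip1-GFP cells added with compounds (0.36-46 umol/L), incubated 2 h RT/16 h 37 C, fixed; GFP cells quantified at 488/509 nm.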

outcome, inactive:
CCOC(=O)c1c(C)[nH]c(C)c1S(=O)(=O)N1CCCC(C(=O)Nc2cc(C)ccc2C)C1 (stereo unspecified), CCCCNC(=O)CSc1nc2nc(C)c(Cc3c(F)cccc3Cl)c(C)n2n1, O=C(CCC(=O)N1CC2CCCN2c2ccccc21)NCc1ccc(F)cc1 (stereo unspecified), CCc1cc(C(=O)Nc2c(C)nn(Cc3ccccc3Cl)c2C)no1, COc1ccc(NC(C)=O)cc1NC(=O)C1(c2cccs2)CCOCC1, CCOc1ccc2nc(N3CCN(C(=O)c4ccco4)CC3)sc2c1, CCn1cc(/C=C(\NC(=O)c2ccc(C)cc2)C(=O)NCCCn2ccnc2)c2ccccc21, Cc1cc(C)cc(-n2c(SCC(=O)N3CCC(C)CC3)nc3c([nH]c4ccccc43)c2=O)c1, O=C(CSc1nc2c([nH]c3ccccc32)c(=O)n1-c1ccc(F)cc1)N1CCc2ccccc21, Cc1ccc2nc(-c3ccc(NC(=O)COc4ccccc4C(C)(C)C)cc3)sc2c1, COc1cc(NC(=O)CN2CCCN(S(=O)(=O)c3ccc(F)cc3)CC2)cc(OC)c1, COc1cc(-c2noc(-c3ccc(NC4CCCC4)c([N+](=O)[O-])c3)n2)cc(OC)c1OC, CCOC(=O)CCCCN(Cc1ccccc1F)S(=O)(=O)c1ccc(F)c(C(=O)Nc2cc(Cl)cc(Cl)c2)c1, COc1ccc(C2C(C(=O)Nc3cccnc3)=C(C)Nc3nc(SCc4ccccc4)nn32)cc1 (stereo unspecified), CCOC(=O)N1CCN(c2ncc3c(n2)CC(c2ccc(Cl)cc2)CC3=O)CC1 (stereo unspecified), Cc1ccc(-c2cc3nccc(-c4cc([N+](=O)[O-])ccc4O)n3n2)cc1, CN(c1ccc(F)cc1)S(=O)(=O)N1CCCC(C(=O)NCCc2ccccc2)C1 (stereo unspecified), CCCCNC(=O)CSc1nc2n[nH]c(C)c2c(=N)n1-c1cccc(C)c1, CCOC(=O)C1CCN(C(=O)c2ccc3c(c2)sc2nc(-c4ccc(OC)cc4)cn23)CC1, CCCCN(CC)CCCNC(=O)c1cc2c(=O)oc3ccc(C)cc3c2s1, O=C(Cn1c(=O)n(Cc2ccccc2)c(=O)c2sc3ccccc3c21)Nc1ccc(F)cc1, Cc1ccc(C)c(Cn2c(=O)n(CCCC(=O)NCCc3ccc(Cl)cc3)c(=O)c3ccccc32)c1

Activity change, negative = inhibition, inactive:
CCC(=O)N1CCc2cc(CNC(=O)c3ccccc3C)ccc21 4.04%, CCc1ccc(-n2c(=O)c3sc4ccccc4c3n(CC(=O)N(CC)Cc3ccccc3)c2=O)cc1 7.69%, Cc1ccc2sc(-c3ccc(N)cc3)nc2c1 3.73%, O=C(Nc1ccc2nc(SCC(=O)N3CCc4ccccc43)sc2c1)c1ccccc1 -5.99%, Cc1cc(C)c(NC(=O)CN2C(=O)c3cccnc3Sc3ccccc32)c(C)c1 3.73%, O=C(Nc1ccccc1F)c1ccc(Cn2nc(N3CCN(c4ccccc4)CC3)ccc2=O)o1 4.3%, COc1cc(OC)c(NC(=O)N2CCc3c([nH]c4ccccc34)C2c2ccccc2F)cc1Cl (stereo unspecified) 10.6%, COc1cc(OC)c(N(C)C(=O)c2c(C)oc3ncnc(N4CCCCC4)c23)cc1Cl 0.955%, CCOc1ccc(CCNC(=O)c2nnc(Cc3ccc(Cl)cc3Cl)o2)cc1OCC -25.1%, O=S(=O)(c1ccc(F)cc1)N(CC(O)Cn1c2ccccc2c2ccccc21)c1ccccc1 (stereo unspecified) -15.4%, COc1ccc(C(=O)NCC(c2ccc3c(c2)OCO3)N2CCN(C)CC2)cc1 (stereo unspecified) 4.04%, COc1ccc(CNC(=O)C2CCCN(S(=O)(=O)c3ccc4c(ccn4C)c3)C2)c(OC)c1 (stereo unspecified) 0.329%, Cc1ccc2c(=O)cc(C(=O)NCc3ccccc3)oc2c1 8.15%, CCOC(=O)c1cc2c(=O)n3ccccc3nc2n(CC2CCCO2)c1=NC(=O)c1ccccc1C (stereo unspecified) 0.627%, NC(=O)c1cnc(-c2ccc(C3(N)CCC3)cc2)c(-c2ccccc2)c1 1.29%, COc1cccc(C(=O)N2CCCCC2CCN2CCCCC2)c1 (stereo unspecified) -5.38%, CN1CCCN(C(=O)c2cccc(-c3ccc(C=C4C(=O)Nc5ccc(Cl)cc54)o3)c2)CC1 17.7%, Cc1ccc(C)c(N2CCN(C(=O)Cc3c(C(=O)O)c(C)cn3C)CC2)c1 1.67%, CCc1ccc(-n2nc(CO)c(C(=O)NCCc3ccccc3)n2)cc1 -7.13%, Cc1cccc(Cn2c(CNS(=O)(=O)c3ccc(C(C)C)cc3)nc3cccnc32)c1 -1.27%, COc1ccc(OC)c(NC(=O)c2cccc3c2C(=O)N(C2CCCCC2)C3)c1 4.46%, Cc1oc(-c2ccccc2F)nc1CS(=O)CC(=O)NC(C)C (stereo unspecified) -8.43%, CCOC(=O)c1cc(S(=O)(=O)Nc2c(C)cc(C)cc2C)[nH]n1 -7.81%, C=CCc1cccc2cc(-c3nc4ccc(C(=O)O)cc4[nH]3)c(=O)oc12 -3.56%, O=C(Nc1ccccc1Br)c1cc(S(=O)(=O)NC2CCCCC2)ccc1F -5.7%, CCOc1ccc(NC(=O)Nc2cc3c(cc2N2CCCCC2)n(C)c(=O)n3C)cc1 8.56%, O=C(NCc1ccc(F)cc1)c1nnc(Cc2cccc(F)c2)o1 -0.245%, COc1ccc(-c2noc(-c3cc(-c4ccc(F)cc4)n[nH]3)n2)cc1 -11.7%, Cc1ccc(C)c(NC(=O)C2CCCN2S(=O)(=O)c2ccc3c(c2)n(C)c(=O)c(=O)n3C)c1 (stereo unspecified) 12.2%, CCOCCCNC(=O)c1ccc(Cn2c(=O)c3cccn3c3cccnc32)cc1 -9.4%, CC(=O)NC(C)c1nc2ccccc2n1Cc1ccccc1Cl (stereo unspecified) 0.969%, Cn1c2cc(S(C)=O)sc2c2cnn(Cc3cccc(N)c3)c(=O)c21 (stereo unspecified) 2.01%, COc1ccc(C2=NC(C)(C)N(CC(=O)Nc3cc(OC)cc(OC)c3)C2=O)cc1 -4.95%, Cc1nc2ccc(S(=O)(=O)NC(CC(C)C)C(=O)NCc3ccc(Cl)cc3)cc2s1 (stereo unspecified) 2.53%, Cc1c(C(=O)OC2CCCCCC2)[nH]c2c1C(=O)CC(c1ccccc1)C2 (stereo unspecified) -0.539%, CCCOc1ccc(-c2nc3ccc(Br)cc3c(=O)o2)cc1 19.5%, CCOc1ccc(S(=O)(=O)NCc2nc3cccnc3n2Cc2ccccc2OC)cc1 -5.32%, CC1=C(C(=O)N2CCN(c3ccc(Cl)cc3)CC2)C2(CCC(C)CC2)OC1=O (stereo unspecified) -3.38%, O=C(COc1ccc(Cl)cc1)NCC(c1cccs1)S(=O)(=O)c1ccc(F)cc1 (stereo unspecified) 1.88%
